The whole screen tested about 360,000 compounds, of which about 25,000 (6.9%) were called active. This list was built around the results that the source calls inconclusive (neither active nor inactive); the mix of calls is not that of the screen. The call rests on the fitted dose curve; in most records, active means well fitted inhibition curve with a large enough effect; inconclusive means small, poorly fitted or top-dose-only effect; inactive means flat fitted curve, though single readings scatter. Potencies of inconclusive entries are doubtful fits and often do not repeat.
biological target: Luciferin 4-monooxygenase (Photinus pyralis) (UniProt P08659); assay: qHTS profiling assay for firefly luciferase inhibitor/activator using purifed enzyme and Km concentrations of substrates (counterscreen for miR-21 project); settings: purified FLuc, luminescence inhibition; series mostly up to 57.5 µM; further: nearly all actives have a fitted effect of over 55% in size
In short: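 Purified P. pyralis luciferase, 10 nM final, with Km-level 10 uM D-luciferin and 10 uM ATP in 50 mM Tris acetate pH 7.5, 10 mM Mg acetate, 0.01% Tween-20, 0.05% BSA; 6-point qHTS titration about 60 µM downward; luminescence read.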
Potency means the concentration at half of the fitted maximal effect; tags describe the fitted curve by direction and shape.

Chain of UniProt P08659 (P08659 whole entry, looked up): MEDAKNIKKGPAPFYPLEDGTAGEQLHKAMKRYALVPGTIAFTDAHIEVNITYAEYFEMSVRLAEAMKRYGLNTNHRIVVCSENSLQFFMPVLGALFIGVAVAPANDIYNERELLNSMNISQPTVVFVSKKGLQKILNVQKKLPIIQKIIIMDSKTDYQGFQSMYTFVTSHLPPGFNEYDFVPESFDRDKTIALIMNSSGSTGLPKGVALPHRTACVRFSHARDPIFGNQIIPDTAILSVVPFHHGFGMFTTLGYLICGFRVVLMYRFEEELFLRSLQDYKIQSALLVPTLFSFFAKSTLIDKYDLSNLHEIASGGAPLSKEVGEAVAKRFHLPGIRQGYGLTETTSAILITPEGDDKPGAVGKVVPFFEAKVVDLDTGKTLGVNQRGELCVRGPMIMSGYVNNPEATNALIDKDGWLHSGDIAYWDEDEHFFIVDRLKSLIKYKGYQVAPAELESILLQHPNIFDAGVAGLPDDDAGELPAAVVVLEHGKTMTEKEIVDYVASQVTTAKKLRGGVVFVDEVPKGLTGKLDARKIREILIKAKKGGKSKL

Structure (SMILES)	Potency
Cc1ccc(C)c(N2CCN(C(c3ccccc3)c3nnc(-c4ccccc4)o3)CC2)c1 (configuration not stated)	inactive
Cc1cc(C(=O)CN2C(=O)c3cccc(N)c3C2=O)c(C)n1Cc1cccs1	active: 1.07 µM
O=C(CCl)Nc1cccc(Oc2ccccc2)c1	active: 16.9 µM
COc1cc2c(cc1OC)-c1cc(Nc3ccccc3)nc(=O)n1CC2	inconclusive: 37.9 µM [inhibitor, partial curve, poor fit]
CCCNC(=O)c1cc(-c2ccc3c(c2)OCO3)on1	active: 3.79 µM
CCCn1c(=N)c(C(=O)NC2CCCCC2)cc2c(=O)n3cc(C)ccc3nc21	inactive
CCOc1cc(/C=C2\C(=O)N(c3nc(-c4ccc(Br)cc4)cs3)N=C2c2ccccc2)ccc1O	inactive
COc1cccc(Cn2cc(C)cc(NC(=O)NCc3ccccc3)c2=O)c1	active: 2.13 µM
CC(C)c1ccc(CNCCSc2nnnn2-c2ccccc2)cc1	inactive
CC1(C)NC(=O)N(CCCOc2ccc3c(c2)CCC3)C1=O	inconclusive: 23.9 µM [inhibitor, partial curve, poor fit]
CCc1ccc(NC(=O)Cn2c(=O)n(CCC(=O)NCCc3ccc(OC)c(OC)c3)c(=O)c3ccccc32)cc1	inactive
CCOC(=O)N1CCN(C(=O)c2ccc(Cn3c(=S)[nH]c4cc(C(=O)OC)ccc4c3=O)cc2)CC1	inconclusive: 30.1 µM [inhibitor, partial curve, poor fit]
C=CCC(Nc1ccccc1)c1ccc(OC)c(OC)c1 (configuration not stated)	inactive
CCCCc1nnc(NC(=O)CCSc2ccccc2)s1	inactive
COc1cc([N+](=O)[O-])cc(/C=N/NC(=O)c2cc(-c3ccccc3)nc3ccccc23)c1O	inconclusive: 37.9 µM [inhibitor, single point]
CCn1c(CSc2nc3ccccc3s2)nnc1SCC(=O)c1ccc2c(c1)OCCO2	inconclusive: 23.9 µM [inhibitor, single point]
CC(C)(C)C1CCc2c(C(=O)NNC(=O)CCCC(=O)O)csc2C1 (configuration not stated)	active: 16.9 µM
Cc1cc(C)c2c(N)c(C(=O)N/N=C/c3cccs3)sc2n1	inconclusive: 1.35 µM [inhibitor, full curve]
COc1cc(SC)ccc1C(=O)OCC(=O)NC1CC1	inconclusive: 23.9 µM [inhibitor, partial curve, poor fit]
Nc1ccc(OCCCc2c(N)nc(N)nc2N)cc1	inconclusive: 1.51 µM [inhibitor, partial curve, poor fit]
CN1CCN(C2(CNC(=O)COc3ccc(C(C)(C)C)cc3)CCCCC2)CC1	inactive
COc1ccccc1CNC(=O)C(=O)c1cn(CC(=O)N2CCOCC2)c2ccccc12	inconclusive: 19 µM [inhibitor, single point]
O=C(COc1ccccc1Cl)Nc1nc(-c2ccc(F)cc2)ns1	inconclusive: 6.01 µM [inhibitor, partial curve, poor fit]
CCN1CCN(c2cc(C)c3cc(NC(=O)/C=C/c4ccc(OCCC(C)C)cc4)ccc3n2)CC1	inactive

Structure (SMILES)	Potency
CCCCCCNC(=O)c1ccc(Br)o1	inconclusive: 37.9 µM [inhibitor, partial curve, poor fit]
Clc1ccc2nc(N3CCN(c4ccccc4)CC3)sc2c1	active: 0.601 µM
O=C(CCNc1cccc(F)c1)c1cc2ccccc2o1	inconclusive: 21.3 µM [inhibitor, single point]
O=C(N/N=C/c1ccc(Br)cc1)c1ccc(Br)o1	active: 4.26 µM
CCOC(=O)c1sc(Nc2cccc(Cl)c2)nc1C	inconclusive: 37.9 µM [inhibitor, single point]
CN(c1ccccc1)S(=O)(=O)c1cccc(NC(=O)Cc2c(F)cccc2Cl)c1	inactive
CN(C)c1ccnc2sc(C(=O)c3ccc(Br)cc3)c(N)c12	inconclusive: 6.75 µM [inhibitor, full curve]
COC(=O)c1ccc(COc2ccc(Cl)cc2)o1	inconclusive: 26.9 µM [inhibitor, single point]
CCOC(=O)c1c(C)[nH]c2ccc(O)cc12	inconclusive: 19 µM [inhibitor, single point]
O=c1/c(=C/c2ccco2)sc2nc(-c3ccccc3Br)nn12	active: 6.75 µM
CC(=O)c1ccc(NC(=O)CSc2ccc(-c3ccc(-n4cccn4)cc3)nn2)cc1	inconclusive: 0.0757 µM [inhibitor, full curve, poor fit]
CC(C)(C)c1ccc(-c2nnc(SCC(=O)NC3CCS(=O)(=O)C3)n2N)cc1 (configuration not stated)	inconclusive: 19 µM [inhibitor, partial curve]
Cc1ccc(-c2cc(C(=O)Nc3ccc(S(=O)(=O)Nc4nc(C)cc(C)n4)cc3)c3ccccc3n2)cc1	active: 16.9 µM
Cc1ccc(-c2nc(Cn3c(SCc4ccc(F)cc4)nc4cccnc43)c(C)o2)cc1	inconclusive: 12 µM [inhibitor, partial curve]
CC(C)(C)c1nnc(N/N=C/c2ccccc2O)n(N)c1=O	inconclusive: 26.9 µM [inhibitor, single point]
COc1ccc(CNC(=O)COC(=O)CNC(=O)c2sc3ccccc3c2Cl)cc1OC	inconclusive: 23.9 µM [inhibitor, partial curve, poor fit]
COC(=O)c1ccc2nc(NC(=O)C3CCCCC3)sc2c1	inconclusive: 2.69 µM [inhibitor, partial curve]
Cc1noc(NC(=O)c2ccc(Cl)cc2)c1Cl	inconclusive: 23.9 µM [inhibitor, single point]
Cc1cccc(N2CCN(C(=O)Cc3ccc(Br)cc3)CC2)c1C	inconclusive: 23.9 µM [inhibitor, single point]
CC(C)NCc1cc(Br)ccc1OCc1ccccc1	inactive
COc1ccc(NC(=O)c2cccnn2)cc1	inconclusive: 26.9 µM [inhibitor, single point]
O=C(CN(c1ccccc1)S(=O)(=O)c1ccc(Cl)cc1)Nc1ccccc1C(=O)N1CCCC1	inactive
C=CCn1c(NC(=O)c2ccc(C)cc2)nc2ccccc21	inconclusive: 2.69 µM [inhibitor, full curve]
